Reference: the RNAGym collection of RNA variant scans (doi:10.7554/elife.90254)
The source gives no read counts; variants with many changes may rest on few reads.

B1: OR4K15 (parent)
chain: GUUAACGGUCAUAGGCCAUGGAAACUAGGAGCACCAUUUCGCUGCCAGUGAAGAAAUGAACAAAGAAAAUCUGGGCCAGGCAGGCAUCAAAAGAAAUAGUCUUGCGCUCAACCAGAAAGUCUGUAAUCAUUUUAAGGGUA

Variants of: B1
Assay: self-cleavage, relative activity (ratio to wild type); higher = more cleavage; in vitro, sequencing; the parent is a self-cleaving ribozyme

| Variant | self-cleavage |
| --- | --- |
| GUUAACGGUCAUAGGCCAUGGAAACUAGAAGCACCAUUUCGCUGCCAGUGAAGAAAUGAACGAAGAAAAUCUGGGCCAGGCAGGCAUCAAAAGAAAUAGUCUUGCGCUCAACCAGAAAGUCUGUAACCAUUUUAAGGGUA | 0.97 |
| GUUAACGGUCAUAGGCCAUGGAAACUAGAAGCACCUUUUCGCUGCCAGUGAAGAAAUGAACAAAGAAAAUCUGGGCCAGGCAGGCAUCAGAAGAAAUAGUCUUGCGCUCAACCAGAAAGUCUGUAAUCAUUUUAAGGGUA | 0.86 |
| GUUAACGGUCAUAGGCCAUGGAAACUAGGCGCACCAUUUCGCUGCCAGUGAAGAAAUGAACAAAGAAAAUCUGGGGCAGGCAGGCAUCAAAGGAAAUAGUCUUGCGCCCAACCAGAAGGUCUGUAAUCAUUUUAAGGGUA | 0.01 |
| GUUAACGGUCAUAGGCCAUGGAAACUAUGAGCACCAUUUCGCUGCCAGUGAAGAAAUGAACAAAGAAAAUCUGGGCCAGGCAGGCAUCAAAAGAAAUAGUCCUGCGCUCAACCAGAAAGUCCGUAAUCAUUUUAAGGGUA | 2.3 |
| GUUAACGGUCAUAGGCCAUGGAAACUAGGCGCACCAUUUCGCUGCCAGUGAAGAAAUGAACAAAGAAAAUCCGGGCCAGGCAGGCGUCAAAAGAAAUAGUCUUGCGCUCAACCAGAAAGUCUGUAAUCAUUUUAAGGGUA | 0.2 |
| GUUAACGGUCAUAGGCCAUGGAAACUAUGAGCACCAUUUAGCUGCCAGUGAAGAAAUGAACAAAGAAAAUCUGGGCCAGGCAGGCAUCAAAAGAAAUAGUCCUGCGCACAACCAGAAAGUCUGUAAUCAUUUUAAGGGUA | 0.01 |
| GUUAACGGUCAUAGGCCAUGGAAACUACGAGCACCAUUUCGCUGCCGGUGAAGAGAUGAACAGAGAAAAUCUGGGCCAGGCAGGCAUCAAAAGAAAUAGUCUUGCGCUCAACCAGAAAGUCUGUAAUCACCUUAAGGGUA | 0.88 |
| GUUAACGGUCAUAGGCCAUGGAAACUAGUAGCACCGUUUCGCCGCCAGUGAAGAAAUGAACAAAGAAAACCUGGGCCAGGCAGGCAUCAAAAGAAAUAGUCUUGCGCUCAGCCAGAAAGUCUGUAAUCAUUUUAAGGGUA | 0.03 |
| GUUAACGGUCAUAGGCCAUGGAAACUAAGAGCACCAUUUCGCCGCCAGUGGAGAAAUGAACAAAGAACAUCUGGGCCAGGCAGGCAUCAAAAGAAAUAGUCUUGCGCUCAACCAGAAAGUCUGUAAUCAUUUUAAGGGUA | 0.91 |
| GUUAACGGUCAUAGGCCAUGGAAACUAGUAGCACCAUUUCGCUGCCAGUGAAGAAAUGAACAAAGAAAAUCUGGGCCAGGCAGGCACCAAAAGAAAUAGUCUUGCGCUCAACCAGAAAGUCCGUAGUCAUUUUAAGGGUA | 0.44 |
| GUUAACGGUCAUAGGCCAUGGAAACUAGGGGCACCGUUUCGCUGCCAGUGAGGAAAUGAACAAAGAAAAUCUGGGCCAGGCAGGCAUCAAAAGAAAUAGUCUUGCGCUCAACCAGAAAGUCUGUAAUCAUUUUAAGGGUA | 1.17 |
| GUUAACGGUCAUAGGCCAUGGAAACUAGGGGCGCCAUUUCGCUGCCAGUGAAGUAAUGAACAAAGAAAAUCUGGGCCAGGCAGGCAUCAAAAGAGAUAGUCUUGCGCCCAACCAGAAAGUCUGUAAUCAUUUUAAGGGUA | 0.01 |
| GUUAACGGUCAUAGGCCAUGGAAACUAGUAGCACCAUUUUGCUGCCAGUGAAGAAAUGAACAAAGAAAAUCUGGGCCAGGCAGGCAUCAAAAGAAAUAGUCUUGCGCUCAACCAGAAAGUCUGUAACCAUUUUAAGGGUA | 1.51 |
| GUUAACGGUCAUAGGCCAUGGAAACUAGUAGCACCAUUUCGCUGCCAGUGAAGAAAUGAACAGAGAAAAUCUGGGCCAGGCAGGCAUCAAAAGAAAUAGUCUUGCGCUCAACCAGAAAGUCUGCAAUCAUUUUAAGGGUA | 1.82 |
| GUUAACGGUCAUAGGCCAUGGAAACUAUGAGCACCAUUUCGCUGCCAGUGAAGAAAUGAACAAAGAGAAUCUGGGCCAGGCAGGCAUCAAAAGAAAUAGUCUUGCGCUCAACCAGAAAGUCCGUAAUCAUUUUAAGGGUA | 1.32 |
| GUUAACGGUCAUAGGCCAUGGAAACUAGGCGCACCAUUUCGCUGCCAGUGAAGAAAUGAACAAAGAAAGUCUGGGCCAGGCAGGCACCAAAAGAAAUAGUCCUGCGCUCAACCAGAAAGUCCGUAAUCAUUUUAAGGGUA | 1.87 |
| GUUAACGGUCAUAGGCCAUGGAAACUAGGGGCACCGUUUCGCUGCCGGUGAAGAAGUGAACAAAGAAAAUCUGGGCCAGGCAGGCAUCAAGAGAAAUAGUCUUGCGCUCAACCAGAAGGUCUGUAAUCAUUUUAAGGGUA | 1.02 |
| GUUAACGGUCAUAGGCCAUGGAAACUAAGAGCACCAUUUCGCUGCCAGCGAAGAAAUGAACAAAGAAAACCUGGGCCCGGCAGGCAUCAAAAGAAAUAGUCUUGCGCUCAACCAGAAAGUCUGUAAUCAUUUUAAGGGUA | 0.26 |
| GUUAACGGUCAUAGGCCAUGGAAACUAGGGGCUCCAUUUCGCUGCCAGUGAAGAAAUGAACAAAGAAAAUCUGGGCCAGGCAGGCGUCAAAAGAAAUAGUCUUGCGCUCAACCAGAAAGUCUGUAAUCAUUUUAAGGGUA | 1.35 |
| GUUAACGGUCAUAGGCCAUGGAAACUAGUAGCACCAUUUCGCUGCCAGUGAAGAAAAGAACAAAGAAAAUCUGGGCCAGGCAGGCAUCAAAAGAAAUAGUCUUGCGCUCAACCAGAAAGUCCGUAAUCAUUUUAAGGGUA | 0.99 |
| GUUAACGGUCAUAGGCCAUGGAAACUAGCAGCACCAUUUCGCUGCCAGUGAAGAAAUGAACAAAGAAAAUCUGGGCCAGGCAGGCAUCAAAAGAAAUAGUCACGCGCUCAACCGGAAAGUCUGUAAUCAUUUUAAGGGUA | 0.03 |

| Variant | self-cleavage |
| --- | --- |
| GUUAACGGUCAUAGGCCAUGGAAACUAGGGGCGCCAUUUCGCUGCCAGUGAAGAAAUGAACAAAGAAAAUCUGGGCCAGGCAGGUAUCAAAAGGAAUAGUCCUGCGCUCAACCAGAAAGUCUGUAAUCAUUUUAAGGGUA | 0.54 |
| GUUAACGGUCAUAGGCCAUGGAAACUAGGCGCACCAUUUCGCUGCCAGUGAAGAAGUGAACAAAGAAAAUCUGGGCCAGGCAGGCAUCAAAAGAAAUAGUCUUGCGCUCAACCAGAAGGUCUGUAAUCAUUUUAAGGGUA | 0.38 |
| GUUAACGGUCAUAGGCCAUGGAAACUAGGCGCACCAUUUCGCUGCCAGUGAAGAAAUGAACAGAGAAAAUCAGGACCAGGCAGGCAUCAAAAGAAAUAGUCUUGCGCUCAACCAUAAAGUCUGUAAUCAUUUCAAGGGCA | 0.02 |
| GUUAACGGUCAUAGGCCAUGGAAACUAGGGGCACCGUUUCGCUGCCAGUGAAGAAAUGAUCAAAGAAAAUCUGGGCCAGGCAGGCAUCAAAAGAAAUAGUCUUGCGCUCAACCGGAAAGUCUGUAAUCAUUUUAAGGGUA | 0.47 |
| GUUAACGGUCAUAGGCCAUGGAAACUAUGAGCACCAUCUCGCUGCCAGUGAAGAAAUGAGCAAAGAAAAUCUGGGCCAGGCAGGCAUCAAAGGAAAUAGUCUUGCGCUCAACCAGAAAGUCUGUAAUCAUUUUAAGGGUA | 0.09 |
| GUUAACGGUCAUAGGCCAUGGAAACUAGAAGCACCAUUUCGCUGCCAGAGAAGAAAUGAACAAAGAAAAUCUGGGCCAGGCAGGCAUCAAAAGAAAUAGUCUUGCGCUCAACCAGAAAGUCUGUAAUCACUUUAAGGGUA | 0.79 |
| GUUAACGGUCAUAGGCCAUGGAAACUAGGGGCGCCAUUUCGCAGCCAGUGAAGAAAUGAACAAAGAAAAUCUGGGCCGGGCAGGCAUCAAAAGAAAUAGUCUUGCGCUCAACCAGAAAGUCUGUAAUCAUUUUAAGGGUA | 0.25 |
| GUUAACGGUCAUAGGCCAUGGAAACUAGAAGCACCAUUUCGCUGCCAGUGAAGAAAUGAACAAAGGAAAUCUGGGCCAGGCAGGCAUCAAAAGAAAUAGUCUUGCGCUCAACCAGAAAGUCUGUAAUCAUCCUAAGGGUA | 0.99 |
| GUUAACGGUCAUAGGCCAUGGAAACUAGUAGCACCAUUUCGCUGCCAGUGAAGAGAUGAACAAAGAAAAUCUGGGCCAGGCAGGCAUCAAAGGAAAUAGUCUUGCGCUCAACCAGAAAGUCUGUAAUCAUUUUAAGGGUA | 2.25 |
| GUUAACGGUCAUAGGCCAUGGAAACUAGGCGCACCAUUUCGCUGCCAGUGAAGAAAUGAACAAAGAAAGUCUGGGCCAGGCAGGCUUCAAAAGAAAUAGUCUUGCGCUCAACCAGAAAGUCUGUAAUCAUUUUAAGGGUA | 1.71 |
| GUUAACGGUCAUAGGCCAUGGAAACUAGAAGCACCAUUUCGCUGCCAGUGAAGAAAUGAACAAAGAAAAUCUGGGCCAGGCAGGCAUCAAAAGAAAUAGUCUUGCGCUCAACCUGAAAGUCUGUAAUCACUUUAAGGGUA | 0.03 |
| GUUAACGGUCAUAGGCCAUGGAAACUAGGCGCACCAUUUCGCUGCCAGUGAAGAGAUGAACAAAGAAAAUCUGGGCCAGGCAGGCAUCAAAAUAAAUAGUCUUGCGCUCAACCAGAAAGUCUGUAACCAUUUUAAGGGUA | 1.22 |
| GUUAACGGUCAUAGGCCAUGGAAACUAGGGGCCCCAUUUCGCUGCCAGCGAAGAAAUGAACAAAGAAAAUCUGGGCCAGGCAGGCAUCCAAAGAAACAGUCUUGCGCUCAACCAGAAAGUCUGUAAUCAUCUUAAGGGUA | 0.3 |
| GUUAACGGUCAUAGGCCAUGGAAACUAGAAGCACCAUUUCGCUGCCAGUGAAGAAACGAACAAAGAAAAUCUGGGCCAGGCAGGCACCAAAAGGAAUAGUCUUGCGCACAACCAGAAAGUCUGUAAUCAUUUUAAGGGUA | 0.02 |
| GUUAACGGUCAUAGGCCAUGGAAACUACGAGCACCAUUUCGCUGCCAGUGAAGUAAUGAACAAAGAAAAUCUGGGCCAGGCAGGCAUCAAAAGAAAUAGUCAUGCGCUCAACCAGAAAGUCUGUAAUCAUUUUAAGGGUA | 1.14 |
| GUUAACGGUCAUAGGCCAUGGAAACUAGAAGCACCAUUUCGCUGCUAGUGAAGAAAAGAACAAAGAAAAUCUGGGCCAGGCAGGCAUCAAAAGAAAUAGUCUUGCGCUCAACCAGAGAGUCUGUAAUCAUUUUAAGGGUA | 1.36 |
| GUUAACGGUCAUAGGCCAUGGAAACUAUGAGCACCAUUUCGCUGCCAGUGAAGAAAUGAACAAAGAAAAUCUGGGCCAGGCGGGCAUCAAAAGAAAUAGUCUAGCGCUCAACCAGAAAGUCUGUAAUCAUUUUAAGGGUA | 0.09 |
| GUUAACGGUCAUAGGCCAUGGAAACUAGUAGCACCAUUUCGCUGCCAGUGAAGAAAUGAACGAAGAGAAUCUGGCCCAGGCAGGCAUCAAAAGAAAUAGUCUUGCGCUCAACCAGGAAGUCUGUAAUCAUUUUAAGGGUA | 0.08 |
| GUUAACGGUCAUAGGCCAUGGAAACUAGUAGCACCAUUUCGCUGCCGGUGAAGAAAUGAACAAAGAGAGUCUGGGCCAGGCAGGCAUCAAAAGAAAUAGUCUUGCGCUCGACCAGAAAGUCUGUAAUCAUUUUAAGGGUA | 0.12 |
| GUUAACGGUCAUAGGCCAUGGAAACUAGGCGCACCUUUUCGCUGCCAGUGAAGAAAUGAACAAAGAAAAUCUGGGCCAGGCAGGCAUCAAAAGAAAUAGUCUUGCGCUCAACCUGAAAGUCUGUAAUCAUUUUAAGGGUA | 0.03 |
